In patent US9439918B2 (priority 2008, dated 2016):
Converted amounts (≈) assume the structure as drawn. Like-named read-outs stand apart in the source and are kept apart here.

Legend:
[1] = tested on: S. pneumoniae 303 Ery-R (ermB); type: cell-based; details: broth microdilution
[2] = tested on: S. pneumoniae 163 Ery-R (MefA); type: cell-based; details: broth microdilution
S. aureus RN220 = type: cell-based; details: broth microdilution
[3] = tested on: S. epidermidis (095-2777A); assay: Time kill curve; type: cell-based; details: tested at 2×, 4×, 8×MIC
E. faecalis (ATCC 29212) = assay: Time kill curve; type: cell-based; details: tested at 2×, 4×, 8×MIC
THP-1 macrophages = assay: Cellular accumulation, microbiological assay; type: in vitro ADME, human; details: for effect of gemfibrozil on cellular accumulation: MRP inhibitor; for effect of verapamil on cellular accumulation: Pgp inhibitor
S. aureus (ATCC 29213) = assay: Time kill curve; type: cell-based; details: tested at 2×, 4×, 8×MIC
S. pyogenes (117-1612A) = assay: Time kill curve; type: cell-based; details: tested at 2×, 4×, 8×MIC
S. aureus ATCC 25923 = type: cell-based, Staphylococcus aureus
[4] = tested on: phagocytized S. aureus ATCC 25923; type: cell-based, Staphylococcus aureus
S. mitis (112-1885A) = assay: Time kill curve; type: cell-based; details: tested at 2×, 4×, 8×MIC
S. aureus (ATCC 25923) [5] = type: cell-based; details: 4 mg/liter, THP-1 macrophages
S. aureus (ATCC 25923) [6] = type: cell-based; details: 4 mg/liter, broth
S. aureus 29213 Ery-S = type: cell-based; details: broth microdilution
[7] = tested on: H. influenzae 49247 Ery-S; type: cell-based; details: broth microdilution
[8] = tested on: S. aureus 96:11480 Ery-R (MLSb); type: cell-based; details: broth microdilution

Compound: CC[C@H]1OC(=O)[C@H](C)[C@@H](OC2CC(C)(OC)C(O)C(C)O2)[C@H](C)[C@@H](OC2OC(C)CC(N(C)C)C2O)[C@@](C)(OC)C[C@@H](C)C(=O)[C@H](C)[C@H]2N(CCCCn3cc(-c4ccccn4)nn3)C(=O)O[C@]12C (some centres unmarked) [Entry 20a]
- Minimum inhibitory concentration, S. pneumoniae 303 Ery-R (ermB) [1]: 2 mg/L (≈ 2.06 µM)
- Minimum inhibitory concentration, S. pneumoniae 163 Ery-R (MefA) [2]: 0.125 mg/L (≈ 0.128 µM)
- MIC, S. aureus RN220 (S. aureus RN220): 8 mg/L (≈ 8.22 µM)

Compound: CC[C@H]1OC(=O)[C@H](C)[C@@H](O[C@H]2C[C@@](C)(OC)[C@@H](O)[C@H](C)O2)[C@H](C)[C@@H](O[C@@H]2O[C@H](C)C[C@H](N(C)C)[C@H]2O)[C@](C)(OC)C[C@@H](C)C(=O)[C@H](C)[C@@H](O)[C@]1(C)O [CLR, clarithromycin]
- Antimicrobial activity (time kill curve) [3]: Static
- Antimicrobial activity (time kill curve) (E. faecalis (ATCC 29212)): Static
- effect of gemfibrozil on cellular accumulation (THP-1 macrophages): Neither verapamil nor gemfibrozil affected the accumulation
- effect of verapamil on cellular accumulation (THP-1 macrophages): Neither verapamil nor gemfibrozil affected the accumulation
- Antimicrobial activity (time kill curve) (S. aureus (ATCC 29213)): Cidal at 8X only
- Antimicrobial activity (time kill curve) (S. pyogenes (117-1612A)): Cidal at 8X only (slow killing)
- Cs (S. aureus ATCC 25923): 1.32 mg/L
- Emax, CFU decrease at 24 h from original inoculum (S. aureus ATCC 25923): −1.41 log10 units
- Extracellular activity (24 h), Emax (S. aureus ATCC 25923; pH 5.5): −1.5 ± 0.8 Δ log cfu from time 0 h
- Cs (S. aureus ATCC 25923; pH 7.4): 2.65 x MIC
- Extracellular activity (24 h), Emax (S. aureus ATCC 25923; pH 7.4): −1.4 ± 0.2 Δ log cfu from time 0 h
- Emax, CFU decrease at 24 h from original inoculum [4]: −0.18 log10 units
- Emax, Δ log10 CFU at 24 h compared to the post-phagocytosis inoculum [4]: −0.18 Δ log10 CFU
- Intracellular activity (24 h), Emax [4]: −0.1 ± 0.1 Δ log cfu from time 0 h
- Static dose [4]: ~0.98 mg/L
- Antimicrobial activity (time kill curve) (S. mitis (112-1885A)): Cidal at 8X only (slow killing)

Compound: CC[C@H]1OC(=O)[C@H](C)[C@@H](OC2CC(C)(OC)C(O)C(C)O2)[C@H](C)[C@@H](OC2OC(C)CC(N(C)C)C2O)[C@@](C)(OC)C[C@@H](C)C(=O)[C@H](C)[C@H]2N(CCCCn3cc(-c4cccc(N)c4)nn3)C(=O)O[C@]12C (some centres unmarked) [Entry 20c]
- Minimum inhibitory concentration, S. pneumoniae 303 Ery-R (ermB) [1]: 2 mg/L (≈ 2.03 µM)
- Minimum inhibitory concentration, S. pneumoniae 163 Ery-R (MefA) [2]: 0.5 mg/L (≈ 0.506 µM)
- MIC, S. aureus RN220 (S. aureus RN220): 8 mg/L (≈ 8.1 µM)

Compound: CC[C@H]1OC(=O)[C@H](C)[C@@H](OC2CC(C)(OC)C(O)C(C)O2)[C@H](C)[C@@H](OC2OC(C)CC(N(C)C)C2O)[C@@](C)(OC)C[C@@H](C)C(=O)[C@H](C)[C@H]2N(CCCCn3cc(-c4cccnc4)nn3)C(=O)O[C@]12C (some centres unmarked) [Entry 20b]
- Minimum inhibitory concentration, S. pneumoniae 303 Ery-R (ermB) [1]: 1 mg/L (≈ 1.03 µM)
- Minimum inhibitory concentration, S. pneumoniae 163 Ery-R (MefA) [2]: ≦0.06 μg/mL
- MIC, S. aureus RN220 (S. aureus RN220): 8 mg/L (≈ 8.22 µM)

Compound: CC[C@H]1OC(=O)[C@H](C)[C@@H](O[C@H]2C[C@@](C)(OC)[C@@H](O)[C@H](C)O2)[C@H](C)[C@@H](O[C@@H]2O[C@H](C)C[C@H](N(C)C)[C@H]2O)[C@](C)(O)C[C@@H](C)CN(C)[C@H](C)[C@@H](O)[C@]1(C)O [AZI, azithromycin]
- Antimicrobial activity (time kill curve) [3]: Static
- Antimicrobial activity (time kill curve) (E. faecalis (ATCC 29212)): Static
- effect of gemfibrozil on cellular accumulation (THP-1 macrophages): did not affect
- effect of monensin on cellular accumulation (THP-1 macrophages; monensin, proton ionophore): almost completely suppressed
- effect of acidic pH on cellular accumulation (THP-1 macrophages; pH brought from 7 to 6): reduced
- effect of verapamil on cellular accumulation (THP-1 macrophages): increased the accumulation
- reduction of CFU (S. aureus (ATCC 25923) [5]): no consistent activity was detected
- Antimicrobial activity (time kill curve) (S. aureus (ATCC 29213)): Cidal at 8X only
- Antimicrobial activity (time kill curve) (S. pyogenes (117-1612A)): Cidal at 8X only (slow killing)
- Cs (S. aureus ATCC 25923): 3.4 mg/L
- Emax, CFU decrease at 24 h from original inoculum (S. aureus ATCC 25923): −1.23 log10 units
- Extracellular activity (24 h), Emax (S. aureus ATCC 25923; pH 5.5): +2.1 ± 0.1 Δ log cfu from time 0 h
- Cs (S. aureus ATCC 25923; pH 7.4): 6.87 x MIC
- Extracellular activity (24 h), Emax (S. aureus ATCC 25923; pH 7.4): −1.2 ± 0.6 Δ log cfu from time 0 h
- Emax, CFU decrease at 24 h from original inoculum [4]: 0.04 log10 units
- Emax, Δ log10 CFU at 24 h compared to the post-phagocytosis inoculum [4]: 0.04 Δ log10 CFU
- Intracellular activity (24 h), Emax [4]: 0.10 ± 0.0 Δ log cfu from time 0 h
- Static dose [4]: ~10 mg/L
- Antimicrobial activity (time kill curve) (S. mitis (112-1885A)): Cidal at 4X and 8X (slow killing)
- time to achieve the antibacterial effect (S. aureus (ATCC 25923) [6]): 5 h

Compound: CC[C@H]1OC(=O)[C@H](C)[C@@H](OC2CC(C)(OC)C(O)C(C)O2)[C@H](C)[C@@H](OC2OC(C)CC(N(C)C)C2O)[C@@](C)(OC)C[C@@H](C)C(=O)[C@H](C)[C@H]2N(CCCCn3cc(COc4c(Cl)cccc4Cl)nn3)C(=O)O[C@]12C (some centres unmarked) [Entry 20d]
- Minimum inhibitory concentration, S. pneumoniae 303 Ery-R (ermB) [1]: 2 mg/L (≈ 1.87 µM)
- Minimum inhibitory concentration, S. pneumoniae 163 Ery-R (MefA) [2]: 0.5 mg/L (≈ 0.467 µM)
- MIC, S. aureus RN220 (S. aureus RN220): 8 mg/L (≈ 7.47 µM)

Compound: CC[C@H]1OC(=O)[C@@](C)(F)C(=O)[C@H](C)[C@@H](OC2OC(C)CC(N(C)C)C2O)[C@@](C)(OC)C[C@@H](C)C(=O)[C@H](C)[C@H]2N(CCCCn3cc(-c4ccccn4)nn3)C(=O)O[C@]12C (some centres unmarked) [Entry 23a]
- Minimum inhibitory concentration, S. aureus 29213 Ery-S (S. aureus 29213 Ery-S): ≦0.125 μg/mL
- Minimum inhibitory concentration, H. influenzae 49247 Ery-S [7]: 2 mg/L (≈ 2.41 µM)
- Minimum inhibitory concentration, S. pneumoniae 303 Ery-R (ermB) [1]: ≦0.125 μg/mL
- Minimum inhibitory concentration, S. pneumoniae 163 Ery-R (MefA) [2]: ≦0.125 μg/mL
- Minimum inhibitory concentration, S. aureus 96:11480 Ery-R (MLSb) [8]: ≦0.125 μg/mL

Compound: CC[C@H]1OC(=O)[C@H](C)[C@@H](OC2CC(C)(OC)C(O)C(C)O2)[C@H](C)[C@@H](OC2OC(C)CC(N(C)C)C2O)[C@@](C)(OC)C[C@@H](C)C(=O)[C@H](C)[C@H]2N(CCCCn3cc(Cn4nnc5ccccc54)nn3)C(=O)O[C@]12C (some centres unmarked) [Entry 20e]
- Minimum inhibitory concentration, S. pneumoniae 303 Ery-R (ermB) [1]: 2 mg/L (≈ 1.95 µM)
- Minimum inhibitory concentration, S. pneumoniae 163 Ery-R (MefA) [2]: 0.5 mg/L (≈ 0.487 µM)
- MIC, S. aureus RN220 (S. aureus RN220): 8 mg/L (≈ 7.79 µM)
